# Screen size: about 390,000 compounds; about 17,000 (4.4%) were called active. The shares of active, inactive and inconclusive entries below differ from those in the screen. The call rests on the fitted dose curve; in most records, active means well fitted inhibition curve with a large enough effect; inconclusive means small, poorly fitted or top-dose-only effect; inactive means no such curve, though single readings can be large or run the other way. Potencies beside an inconclusive call are fits to weak or partial responses and may not hold up.
# Biological target: Lysine-specific demethylase 4A (Homo sapiens) (UniProt O75164)
# UniProt O75164, sequence (O75164 whole entry, looked up, the tested form may be a part): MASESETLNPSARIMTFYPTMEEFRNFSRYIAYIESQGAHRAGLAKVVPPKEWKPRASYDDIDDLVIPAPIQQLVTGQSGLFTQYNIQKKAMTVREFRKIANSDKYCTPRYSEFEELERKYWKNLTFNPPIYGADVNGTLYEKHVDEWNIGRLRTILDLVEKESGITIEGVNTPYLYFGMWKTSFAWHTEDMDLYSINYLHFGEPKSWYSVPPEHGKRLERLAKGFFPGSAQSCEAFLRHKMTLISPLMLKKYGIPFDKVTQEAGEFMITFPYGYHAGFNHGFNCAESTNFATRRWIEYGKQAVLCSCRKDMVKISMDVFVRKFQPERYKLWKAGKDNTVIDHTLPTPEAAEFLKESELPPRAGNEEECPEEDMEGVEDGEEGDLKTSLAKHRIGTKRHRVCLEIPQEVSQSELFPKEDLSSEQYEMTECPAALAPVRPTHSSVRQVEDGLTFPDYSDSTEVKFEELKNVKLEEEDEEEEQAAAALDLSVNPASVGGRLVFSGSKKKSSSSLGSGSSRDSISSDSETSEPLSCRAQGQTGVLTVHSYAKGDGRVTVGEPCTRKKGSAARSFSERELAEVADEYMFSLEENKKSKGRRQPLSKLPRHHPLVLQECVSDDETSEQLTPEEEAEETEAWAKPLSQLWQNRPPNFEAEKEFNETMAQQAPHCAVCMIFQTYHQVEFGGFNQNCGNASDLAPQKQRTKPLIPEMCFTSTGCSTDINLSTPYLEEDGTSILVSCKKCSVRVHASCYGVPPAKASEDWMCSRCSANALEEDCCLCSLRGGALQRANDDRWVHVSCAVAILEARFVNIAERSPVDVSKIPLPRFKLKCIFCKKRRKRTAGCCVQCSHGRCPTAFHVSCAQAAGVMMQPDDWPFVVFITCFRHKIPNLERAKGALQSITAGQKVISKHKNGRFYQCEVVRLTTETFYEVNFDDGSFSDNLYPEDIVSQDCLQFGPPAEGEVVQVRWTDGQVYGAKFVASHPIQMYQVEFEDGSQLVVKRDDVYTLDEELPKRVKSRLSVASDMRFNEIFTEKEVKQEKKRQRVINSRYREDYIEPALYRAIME
# Experiment: qHTS Assay for Inhibitors of JMJD2A-Tudor Domain; further: nearly all actives have a fitted effect of over 50% in size
# Conditions: AlphaScreen JMJD2A-Tudor / H3K4me3 peptide binding; series mostly up to 114 µM
# Potency means the concentration at half of the fitted maximal effect; tags describe the fitted curve by direction and shape.
row,SMILES,Potency
1,COc1ccc2c(c1)-c1nc(/N=C/c3c(O)ccc4ccccc34)sc1CC2,active: 39.8 µM
2,Cc1ccc2c(N)c(C)ccc2c1,"inconclusive: 79.4 µM [inhibitor, partial curve]"
3,Cc1ccc(S(=O)(=O)NCC(c2cccnc2)N2CCc3ccccc32)cc1 (stereo not drawn),"inconclusive: 56.2 µM [inhibitor, partial curve]"
4,CCc1ccc(C2c3[nH]c4ccccc4c3CCN2C(=O)c2ccc(=O)n(C)n2)cc1 (stereo not drawn),"inconclusive: 44.7 µM [inhibitor, single point]"
5,O=C(Nc1nnc(S(=O)(=O)N2CCOCC2)s1)c1ccccc1,inactive
6,CCOC(=O)c1c(C)oc2ccc(NS(=O)(=O)c3ccc4c5c(cccc35)C(=O)N4)cc12,"inconclusive: 56.2 µM [inhibitor, partial curve]"
7,O=C(CSc1nccn1-c1ccc(F)cc1)Nc1ccc(OC(F)(F)F)cc1,"inconclusive: 44.7 µM [inhibitor, partial curve]"
8,CCn1c(C2CCN(S(=O)(=O)c3ccc(OC)cc3)CC2)n[nH]c1=S,active: 6.31 µM
9,CC(C)(C)NC(=O)NC(=O)CN1CCN(c2ccc(O)cc2)CC1,active: 22.4 µM
10,COc1ccc(CC(=O)NCCc2ccc(Cl)cc2Cl)cc1,inactive
11,COc1cc2c(cc1NC(=O)CSCC(=O)O)oc1ccccc12,"inconclusive: 79.4 µM [inhibitor, single point]"
12,CCOC(=O)c1cc2occc2n1CC(=O)Nc1ccc(OC)cc1OC,"inconclusive: 28.2 µM [inhibitor, full curve]"
13,COc1cc(NC(=O)N2CCC(CN3CCCC3)CC2)cc(OC)c1OC,inactive
14,CC(=O)Nc1ccc(S(=O)(=O)N2CCSc3ccccc32)cc1,inactive
15,COc1ccc(CNC(=O)Cc2csc(NC(=O)Nc3ccccc3OC)n2)cc1,"inconclusive: 56.2 µM [inhibitor, partial curve]"
16,O=c1[nH]c(NC2CCCCC2)nnc1Cc1ccccc1,active: 50.1 µM
17,Cc1ccc([C@@H]2CC=C(C(=O)O)[C@H](c3ccc(C(C)(C)C)cc3)N2S(=O)(=O)c2ccc(C)cc2)cc1,"inconclusive: 56.2 µM [inhibitor, partial curve]"
18,Cc1nc2c3ccccc3nc(NNC(=O)CCC(=O)NCCC(C)C)n2n1,inactive
19,Cc1cc(-c2n[nH]c(=S)n2/N=C/c2sccc2C)n[nH]1,active: 3.16 µM
20,COCCCNc1nc(N)c([N+](=O)[O-])c(Nc2cc(OC)ccc2OC)n1,inactive
21,O=C(CCCn1c(=O)[nH]c2cc(Cl)ccc2c1=O)NCCCN1CCCC1,inactive
22,Cc1ccccc1Cn1c(=O)n(Cc2ccc(Cl)cc2)c(=O)c2cccnc21,inactive
23,Cn1c(SCc2ccc(C(F)(F)F)cc2)nc2c([nH]c3ccccc32)c1=O,"inconclusive: 17.8 µM [inhibitor, single point]"
24,CCOc1ccccc1C(=O)N(Cc1ccc(C)o1)C1CCS(=O)(=O)C1 (stereo not drawn),"inconclusive: 12.6 µM [inhibitor, partial curve, poor fit]"
25,COc1ccc(NC2CCCCC2NS(=O)(=O)c2ccc(C)cc2)cc1 (stereo not drawn),"inconclusive: 56.2 µM [inhibitor, partial curve]"

row,SMILES,Potency
1,O=C(O)CC(NCc1ccco1)C(=O)OCCCl (stereo not drawn),active: 28.2 µM
2,CCOc1ccc(CCNC(=O)c2nnc(Cc3cc(OC)c(OC)c(OC)c3)o2)cc1OCC,inactive
3,COc1ccc(N2CCN(C(=O)c3ccc(N(C)S(=O)(=O)c4ccc(OC)cc4)cc3)CC2)cc1,active: 17.8 µM
4,CSc1ncc(CN2CCc3c([nH]c4ccccc34)C2C(C)(C)C)cn1 (stereo not drawn),"inconclusive: 50.1 µM [inhibitor, partial curve]"
5,Cc1[nH]n(C(N)=S)c(=O)c1N=Nc1ccccc1C(F)(F)F,"inconclusive: 28.2 µM [inhibitor, partial curve]"
6,O=C1NC(=S)SC1=Cc1ccc(Cl)cc1,"inconclusive: 79.4 µM [inhibitor, partial curve, poor fit]"
7,COc1cccc(-n2c(=O)n(Cc3ccccc3)c(=O)c3[nH]cnc32)c1C,inactive
8,CC1CCCN(c2ccc(/C=C(\C#N)c3nn(-c4ccccc4)c(N)c3C#N)cc2[N+](=O)[O-])C1 (stereo not drawn),"inconclusive: 28.2 µM [inhibitor, partial curve]"
9,O=C(NCc1ccco1)c1cc2c(s1)CCCCC2,inactive
10,COc1cc(C(=S)N2CCOCC2)cc(OC)c1OS(=O)(=O)c1ccc(C)cc1,inactive
11,Cc1ccc(C2=N/C(=C\N3CCCCC3)C(=O)O2)cc1,"inconclusive: 50.1 µM [inhibitor, partial curve]"
12,CCN(CCCNC(=O)c1ccc2c(c1)NC(=O)CN2C)c1cccc(C)c1,"inconclusive: 39.8 µM [inhibitor, partial curve]"
13,O=C(O)c1ccccc1C(=O)Nc1ccccc1NC(=O)c1ccccc1C(=O)O,inactive
14,O=C(Nc1cccnc1)c1cc(-c2cccnc2)nc2ccc(Br)cc12,"inconclusive: 39.8 µM [inhibitor, full curve, poor fit]"
15,O=C(COc1ccccc1)Nc1cc(NC(=O)COc2ccccc2)cc(C(=O)O)c1,"inconclusive: 31.6 µM [inhibitor, single point]"
16,O=S(=O)(/N=C(/NNS(=O)(=O)c1ccccc1)c1ccccc1)c1ccccc1,"inconclusive: 39.8 µM [inhibitor, single point]"
17,CCC1c2ccc(C)n2CCN1C(=O)Nc1ccc(F)cc1 (stereo not drawn),"inconclusive: 89.1 µM [inhibitor, single point]"
18,CN(C)c1ccc(C(CNC(=O)c2ccc(C(C)(C)C)cc2)N2CCOCC2)cc1 (stereo not drawn),"inconclusive: 44.7 µM [inhibitor, partial curve]"
19,O=C1NCCCN1Cc1ccc(Cl)cc1,inactive
20,CCOc1ccc(/C=C2/SC(=S)N(CCC(=O)Nc3ccc(C(=O)O)cc3)C2=O)cc1,active: 10 µM
21,COc1ccc2[nH]c(C)c(CCNS(=O)(=O)c3cc(F)ccc3OC)c2c1,"inconclusive: 56.2 µM [inhibitor, partial curve]"
22,Cc1ccn2cc(CNS(=O)(=O)c3ccc4ccccc4c3)nc2c1,inactive
23,Cc1ccc(C(=O)N2CCCC(C(=O)c3ccc(Cl)cc3C)C2)cn1 (stereo not drawn),inactive
24,Cc1ccc2nc(C)c(Cl)c(=O)n2c1,"inconclusive: 89.1 µM [inhibitor, single point]"
25,COc1ccc(CC(=O)Nc2c(C(N)=O)oc3ccccc23)cc1,inactive

row,SMILES,Potency
1,Cc1cc(C)n(-c2nnc(N3CCN(c4ccc(F)cc4)CC3)nn2)n1,"inconclusive: 70.8 µM [inhibitor, partial curve, poor fit]"
2,Cc1cc(C)c2c(CN3CCN(C/C=C/c4ccccc4)CC3)cc(=O)oc2c1,"inconclusive: 39.8 µM [inhibitor, single point]"
3,COc1ccc2[nH]c3c(c2c1)CCN1C(=O)C(CC(=O)NC(C)(C)C)C[C@H](C(=O)N2CCCCC2)[C@@]31CCc1ccccc1 (stereo partly drawn),"inconclusive: 31.6 µM [inhibitor, partial curve]"
4,COc1cccc(-c2nn(C)c3sc(C(=O)N4CCN(c5cccc(C)c5)C(C)C4)cc23)c1 (stereo not drawn),"inconclusive: 17.8 µM [inhibitor, full curve]"
5,Cc1nc2c(C#N)cnn2c2c1CCN2CC1CCCO1 (stereo not drawn),inactive
6,CCOc1ccc(NC(=O)COC(=O)c2cc(C)oc2C)cc1,inactive
7,CCOC(=O)c1cn2ccc(C)cc2n1,"inconclusive: 14.1 µM [inhibitor, single point]"
8,COc1cc(C(=O)N2CCc3c([nH]c4ccccc34)C2c2ccccc2)cc(OC)c1OC (stereo not drawn),"inconclusive: 28.2 µM [inhibitor, full curve]"
9,COc1ccccc1/C=C1/C(=O)N(c2ccccc2)N=C1C,"inconclusive: 39.8 µM [inhibitor, partial curve]"
10,CCN1CCN(CC(O)COc2ccc(Cl)cc2)CC1 (stereo not drawn),"inconclusive: 89.1 µM [inhibitor, single point]"
11,COc1ccc(NC(=O)Nc2ncn(Cc3cccc(C(F)(F)F)c3)n2)cc1OC,"inconclusive: 79.4 µM [inhibitor, single point]"
12,Nc1nc(NC(=O)CCC(=O)O)nn1-c1ccccc1,active: 22.4 µM
13,COc1ccc(CCCC(=O)Nc2ccc(F)cc2)cc1,"inconclusive: 25.1 µM [inhibitor, single point]"
14,O=C(O)C1CCCCC1C(=O)NCCCn1ccnc1 (stereo not drawn),inactive
15,N#Cc1cc(-c2ccccc2)nn1-c1ccccc1,active: 8.91 µM
16,O=C(/N=C1\NC(=O)C(F)(C(F)(F)F)S1)NC1CCCCC1 (stereo not drawn),active: 50.1 µM
17,COc1ccc(OC)c(NC(=O)COC(=O)c2c3c(nc4ccccc24)CCCC3)c1,"inconclusive: 25.1 µM [inhibitor, full curve]"
18,CC[n+]1cc(-c2ccccc2)nc(N2CCOCC2)n1,active: 31.6 µM
19,CCN1C(=O)C(CC(=O)Nc2ccc(F)cc2)N(CCCN2CCN(c3ccc(F)cc3)CC2)C1=S (stereo not drawn),"inconclusive: 50.1 µM [inhibitor, partial curve]"
20,COc1ccc(-c2csc(N(CCCN(C)C)C(=O)c3ccccc3F)n2)cc1,"inconclusive: 39.8 µM [inhibitor, full curve, poor fit]"
21,COc1ccc(N2CCN(c3cc(C)c4ccc(O)cc4n3)CC2)cc1,"inconclusive: 70.8 µM [inhibitor, partial curve]"
22,CCn1c(C)nc2cc(S(N)(=O)=O)ccc21,active: 14.1 µM
23,CCOC(=O)[C@H]1[C@H]2COc3ccc(Cl)cc3[C@@H]2N2C(=O)c3cc(Br)ccc3NC(=O)[C@@]12C,"inconclusive: 79.4 µM [inhibitor, partial curve]"

# — PubChem BioAssay AID504339 (National Center for Advancing Translational Sciences (NCATS), 2011)
